Measurements reported in PubChem BioAssay AID651820 (National Center for Advancing Translational Sciences (NCATS), 2012).
Screen size: about 340,000 compounds; about 12,000 (3.5%) were called active. The inconclusive results got no clear call from the source; some entries with a clear call stand among them for comparison. Calls follow the shape of the dose curve; as a rule, active = well fitted inhibition curve with a large enough effect; inconclusive = small, poorly fitted or top-dose-only effect, or another doubt; inactive = no such curve, though single readings can be large or run the other way. No potency is given beside an inconclusive call; the fits are too rough.

Assay: qHTS Assay for Inhibitors of Hepatitis C Virus (HCV)
Conditions: Huh7.5.1 HCVcc-Cre (HCVcc is cell-culture hepatitis C virus) infection, luciferase reporter, 44 h; activity change, negative = inhibition: at 41.8 µM (top of the series)
Outline: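 1,000 cells/well; 4 h culture; + compound; + HCVcc-Cre (~0.5 moi); 44 h; luciferase substrate, RT 15 min; read 15 sec.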
% is scaled to controls: 0 for no effect and ±100 for the full control effect; potency is read from the fitted curve at half-maximal effect; tags tell the direction and shape of the fitted curve.

| SMILES | Potency | activity change, negative = inhibition |
| --- | --- | --- |
| O=C(N/N=C/c1ccc(O)cc1)c1cc(-c2ccc3c(c2)OCO3)n[nH]1 | inconclusive [inhibitor, full curve, poor fit] | – |
| COc1ccc(C(CNC(=O)c2cccc(Br)c2)N2CCCC2)cc1 (centres undefined) | inconclusive [inhibitor, partial curve, poor fit] | – |
| Clc1ccc(-c2onc3c2CCCC3)cc1 | inconclusive [inhibitor, partial curve] | – |
| Cc1cc(=O)oc2c1ccc1ccccc12 | inconclusive [inhibitor, partial curve] | – |
| COc1ccc(NS(=O)(=O)c2cccc(C(=O)NCCc3ccc(S(N)(=O)=O)cc3)c2)cc1 | inconclusive [inhibitor, single point] | – |
| CC1=C/C(=N\OS(=O)(=O)c2ccccc2)C(C(C)C)=CC1=O | inconclusive [inhibitor, single point] | – |
| CCOc1cc(/C=N/O)cc(Br)c1OCc1ccc(Cl)cc1 | inconclusive [inhibitor, single point] | – |
| C=CCOc1ccc(C(=O)/C=C2/C(=O)Nc3ccccc32)cc1 | – | inactive: -20.3% |
| O=C(Nn1c(O)c(C=C2N=c3ccccc3=N2)sc1=S)c1ccccc1 | inconclusive [inhibitor, single point] | – |
| Cc1ccccc1-c1nn2c(-c3ccccc3)nnc2s1 | inconclusive [inhibitor, single point] | – |
| Cc1cccc(OCCCn2ccnc2)c1 | – | inactive: 3.79% |
| COc1ccc(C(=O)/C=C2/Sc3cc4c(cc3N2C)OCO4)cc1 | inconclusive [inhibitor, single point] | – |
| CN(CC(=O)Nc1ccc(Cl)c(C(F)(F)F)c1)C(=O)c1cccc(N2C(=O)CCC2=O)c1 | – | inactive: 4.05% |
| O=C(Nc1nc(-c2ccc(Cl)cc2Cl)cs1)c1ccc(OCC2CCCO2)cc1 (centres undefined) | active: 8.91 µM | – |
| CCOC(=O)C1=C(CSc2nc3c(cc2C#N)CN(C)CC3)OC(N)=C(C#N)C1c1ccc(F)cc1 (centres undefined) | active: 10 µM | – |
| COc1ccc(C2(O)CC3CCC(C2)N3c2nc(C)cc(C)c2C#N)cc1 (centres undefined) | inconclusive [inhibitor, single point] | – |
| Cc1cccc(OCCC(=O)N(C)CC(=O)Nc2cccc3ccccc23)c1 | inconclusive [inhibitor, full curve] | – |
| CN(c1ccccc1C(=O)Nc1ccc(S(=O)(=O)N2CCCC2)cc1)S(C)(=O)=O | – | inactive: 2.92% |
| COc1ccc(C(=O)Nc2cccc(S(=O)(=O)N3CCCC3)c2)cc1S(=O)(=O)N1CCOCC1 | inconclusive [inhibitor, single point] | – |
